Our source for the self-cleavage values is the RNAGym collection of RNA variant scans (doi:10.7554/elife.90254).

The source gives no read counts; variants with many changes may rest on few reads.

B1: OR4K15 (parent)
chain: GUUAACGGUCAUAGGCCAUGGAAACUAGGAGCACCAUUUCGCUGCCAGUGAAGAAAUGAACAAAGAAAAUCUGGGCCAGGCAGGCAUCAAAAGAAAUAGUCUUGCGCUCAACCAGAAAGUCUGUAAUCAUUUUAAGGGUA

In this data set the parent is B1. As to the kind of experiment: self-cleavage, relative activity (ratio to wild type); higher = more cleavage; in vitro, sequencing; the parent is a self-cleaving ribozyme.
Turning to GUUAACGGUCAUAGGCCUUGGAAACUAGGAGCACCAUUUCGCUGCCAGUGGAGAAACGAACAAAGAAGAUCUGGGCCAGGCAGGCAUCAAAAGAAAUAGUCUUGCGCCCAACCAGGAAGUCUGUAAUCAUUUUAAGGGUA, the self-cleavage was found to be 0.

With GUUAACGGUCAUAGGCCGUGGAAACUAGGAGCACCAUUUCGCUGCCAGUGAAGAAAAGAACAAAGAAAAUCCGGGCCAGGCAGGCAUCAAAAGAAAUAGUCUUGCGCUCAACCAGAAAGUCUGUAAUCAUUUUAAGGGUA, the self-cleavage stood at 0.19.

As to GUUAACGGUCAUAGGCCGUGGAAACUAGGAGCACCAUUUCGCUGCCAGUGAAGAAAUGAACAAAGAAAAUCUGGGCCAGGCAGGCACCAGAAGAAAUAGUCUUGCGCUCAACCAGAAAGUCUGUAAUCAUUUUAAGGGUA, the self-cleavage was determined as 0.19.

Consider GUUAACGGUCAUAGGCCUUGGAAACUAGGAGCACCAUUUCGCUGCCAGUGGAGAUAUGAACAAAGAAAAUCUGGGCCAGGCAGGCAUCGAAGGAAAUAGUCUUGCGCUCAACCAGAAAGUCUGUAAUCAUUUUAAGGGUA, for which the self-cleavage was determined as 0.65.

Regarding GUUAACGGUCAUAGGCCUUGGAAACUAGGAGCCCCAUUUCGCUGCCAGUGAUGAAAUGAACAAAGAAAAUCUGGGCCAGGCUGGCACCAAAAGAAAUAGUCUUGCGCUCAACCAGAAAGUCUGUAAUCAUUUUAAGGGUA, the self-cleavage was 0.19.

Turning to GUUAACGGUCAUAGGCCUUGGAAACUAGGAGCACCAUUUCGCUGCCAGUGAAGAAAUGAGCAAAGAAAAUCUGGGCCAGGCAGGCAUCGAAAGAAAUAGUCUCGCGCUCGACCAGAAAGUCUGUAAUCAUUUUAAGGGUA, the self-cleavage was 0.16.

For GUUAACGGUCAUAGGCCUUGGAAACUAGGAGCACCAUUUCGCUGCCAGUGAAGAGGUGAACAAAGAAAGUCUGGGCCAGGCAGGCAUCAAAAGGAAUAGUCUUGCGCUCAACCAGAAAGUCUGUAAUCAUUUUAAGGGUA, the self-cleavage was determined as 1.01.

As for GUUAACGGUCAUAGGCCUUGGAAACUAGGAGCACCGUUUCGCUGCCAGUGAAGGAAUGAACAAAGAAAUUCUGGGCCUGGCAGGCAUCAAAAGAAAUAGUAUUGCGCUCAACCAGAAAGUCUGUAAUCAUUUUAGGGGUA, the self-cleavage was found to be 0.03.

Take GUUAACGGUCAUAGGCCUUGGAAACUAGGAGCACCAUUUCGCUGCCGGUGAAGAAAUGAACAAAGAAAAUCUGGGCCAGGCAGGCAUCAAAAGAAACAGUCUUGCGCUCAACCAGAAAGUCUGUAAUCAUUUUAAGGGUA: the self-cleavage amounted to 0.73.

In the case of GUUAACGGUCAUAGGCCGUGGAAACUAGGAGCACCAUUUCGCUGCCAGUGAAGAAAGGAACAAAGUAAAUCUGGGCCAGGCAGGCAUCAAAAGAAAUAGUCUUGCGCUCAACCAGAAAGUCUGUAAUCAUUUUAAGGGUA, the self-cleavage worked out at 0.7.

Regarding GUUAACGGUCAUAGGCCUUGGAAACUAGGAGCACCAUUUCGCUGCCAGUGAGGAAAAGAACAAAGAAAAUCUGGGCCAGGCAGGCAUCGAAAGAAAUAGUCUUGCGCUCAACCAGAAAGUCUGUAAUCAUUUUAAGGGUA, the self-cleavage was 0.79.

Regarding GUUAACGGUCAUAGGCCUUGGAAACUAGGAGCACCAUUUCGCUGCCAGUGGAGAAAUGAACAAAGAAAAUCUGGGCCGGGCAGGCUUCAAAAGAAAUAGUCUUGCGCUCAACCAGAAAGUCUGUAAUCAUUUUAAGGGUA, the self-cleavage came out at 0.38.

With GUUAACGGUCAUAGGCCGUGGAAACUAGGAGCACCAUUUCGCUGCCAGCGAAGAAAUGAACAAAGAAAAUCUGGGUCAGGCAGGCAUCAAAAGAAAUAGUCUUGCGCUCAACCAGAAUGUCUGUAAUCAUUUUAAGGGUA, the self-cleavage was 0.02.

Take GUUAACGGUCAUAGGCCUUGGAAACUAGGAGCACCAUUUCGCUGCCAGUGAAGAAAUGAGCAAAGAAAAUCUGGGCCAGGCAGGCAUCAAAAGAAAUAGCCUUGCGCUCAACCAGAAAGUCUGUAAUCAUUUUAAGGGUA: the self-cleavage amounted to 1.94.

As to GUUAACGGUCAUAGGCCUUGGAAACUAGGAGCACCAUUUCGCUGCCAGUGAGGAAAUGAACAAAGGAAAUCUGGGCCAGGCAGGCAUCAAAAGAAAUAGUCUUGCGCUCAACCAGAAAGUCUGUAAUCAUUUUAAGGGUA, the self-cleavage is 1.

As for GUUAACGGUCAUAGGCCUUGGAAACUAGGAGCACCAUUUCGCUGCCAGUGAAGAAGUGAACAAAGAAAAUCUGGGCCGGGCAGGCAUCAGAAGAAAUAGUCUUGCGCUCAACCAGAAAGUCUGUAAUCAUUUUAAGGGUA, the self-cleavage was found to be 0.08.

As to GUUAACGGUCAUAGGCCUUGGAAACUAGGAGCACCAUUUCGCUGCCAGUGGAGAAAUGAACAAGGAAAAUCUGGGCCAGGCAGGCAUCAAAAGAAAUAGUCUUGCGCUCAACCAGAAAGUCUGUAAUCAUUUUAAGGGUA, the self-cleavage turned out to be 1.34.

With GUUAACGGUCAUAGGCCUUGGAGACUAGGAGCACCAUUUCGCUGCCAGUGAAGAAAUGAACAAAGAAAAUCUGGGCCAGGCAGGCAUCAAAAGAAAUAGUCUUGCGCUCAACCAGAAAGUCUGUAAUCAUUUUAAGAGUA, the self-cleavage was 1.86.

As to GUUAACGGUCAUAGGCCUUGGAAACUAGGAGCACCAUUUCGCUGCCAGUGAAGGAAUGAACAAAGAAGAUCUGGGCCAGGCAGGCAUCAAAAGAAAUAGUCUUGCGCUCAACCAGAAAGUCUGUAAUCAUUUUAAGGGUA, the self-cleavage was 1.18.

GUUAACGGUCAUAGGCCUUGGAAACUAGGAGCGCCAUUUCGCUGCCAGUGAAGAAAUGAACAAAGAGAAUCUGGGCCAGACAGGCAUCAAAAAAAAUAGUCUUGCGCUCAACCAGAAAGUCUGUAAUCAUUUUAAGGGUA: the self-cleavage is 0.13.

Consider GUUAACGGUCAUAGGCCUUGGACACUAGGAGCACCAUUAUGCUGCCAGUGAAGAAAUGAACAAAGAAAAUCUGGGCCAGGCAGGCAUCAAAAGAAACAGUCUUGCGCUCAACCAGAAAGUCUGUAAUCAUUUUAAGGGUA, for which the self-cleavage turned out to be 1.42.

As for GUUAACGGUCAUAGGCCUUGGAAACUAGGAGCACCAUUUCGCUGCCAGUGAGUAAAUGAACAAAGAAAAUCUGGGCCAGGCAGGCAUCAAAAGAAAUAGUCUUGCGCUCAACCAGAAAGUCUGUAAUCAUCUUAAGGGUA, the self-cleavage amounted to 0.98.

GUUAACGGUCAUAGGCCUUGGAAACUAGGAGCACCAUUUCGCUGCCAGUGAAGGAAUGAACAAAGAAAAUCUGGGCCAGGCAGGCAUCAAAAGAAAUAGUCUUGCGCUCAGCCAGAAAGUCUGUAAUCAUUUUAAGGGUA: the self-cleavage was 0.01.

For GUUAACGGUCAUAGGCCUUGGGAACUAGGAGCACCAUUUCGCUGCCAGUGAAGAAAUGAACAAAGAAAAUCUGGGCCAGGCAGGCAUCAAAAGAAAUAGUCUUGCGCUCAACCAGAAAGUCUGUAAUCAUUUCAAGGGUA, the self-cleavage turned out to be 1.29.

In the case of GUUAACGGUCAUAGGCCGUGGAAACUAGGAGCACCAUUUCGCUGCCAGUGAAGAAAUGAACAAAGAAAAUCUGGGCCAGGCAGGCAUCAAAAGAAAUAGUCUUGCGCCCAACCAGAAAGUCCGUAAUCAUUUUAAGGGUA, the self-cleavage was 0.01.

With GUUAACGGUCAUAGGCCUUGGAAGCUAGGAGCACCAUUUCGCUGCCAGUGAAGAAAUGAACAAAGAAAAUCUGGGCCAGGCAGGCACCAAAAGAAAUAGCCUUGCGCUCAACCAGAAAGUCUGUAACCAUUUUAAGGGUA, the self-cleavage is 1.73.

On to GUUAACGGUCAUAGGCCGUGGAAACUAGGAGCACCAUUUCGCUGCCAGUGAAGAAAAGAACAAAGAAAAUCUGGGCCAGGCAGGCAUCAAAGGAAAUAGUCUUGCGCUCAACCAGAAAGUCCGUAAUCAUUUUAAGGGUA, for which the self-cleavage amounted to 0.58.

Regarding GUUAACGGUCAUAGGCCUUGGAGACUAGGAGCACCAUUUCGCUACCAGUGAAGAAAUGAACAAAGAAAAUCUGGGCCAGGCAGGCAUCAAAAGAAAUAGUCUUGCGCUAAACCAGAAAGUCUGUAAUCAUUUUAAGGGUA, the self-cleavage amounted to 0.51.

For GUUAACGGUCAUAGGCCGUGGAAACUAGGAGCACCAUUUCGCUGCCAGUGAAGAAAUGAACAAAGAAAAUCUGGGCCAGGCAGGCAUCAAAAGAAAUAGUCUCGCGCUCAACCGGAAAGUCUGUAAUCAUUUUAAGGGUA, the self-cleavage worked out at 0.34.

On to GUUAACGGUCAUAGGCCGUGGAAACUAGGAGCACCAUUUCGCUGCCAGUGAAGAAAUGAACAAAGAAAAUCUGGGCCAGGCAGGCAUCAAAAGAAAUAGCCUUGCGCUCAACCAGAAAGUCUGUAAUCAUUUUAAAGGUA, for which the self-cleavage was 2.27.

Consider GUUAACGGUCAUAGGCCUUGGAAACUAGGAGCACCAUUUCGCUGCCAGUGAGGAAAUGAACAAAGAGAAUCUGGGCCAGGCAGGCAUCAAAAGAAAUAGUCGUGCGCCCAACCAGAAAGUCUGUAAUCAUUUUAAGGGUA, for which the self-cleavage came out at 0.04.

On to GUUAACGGUCAUAGGCCUUGGAAACUGGGAGCACCAUUUCGCUGCCAGCGAAGUAAUGAACAAAGAAAAUCUGGGCCAGGCAGGCAUCAAAAGAAAUAGUCUUGCGCUCAACCGGAAAGUCUGUAAUCAUUUUGAGGGUA, for which the self-cleavage is 0.28.

Turning to GUUAACGGUCAUAGGCCUUGGAAACUAGGAGCACCAUUUCGCUGCCCGUGAAGAAAUGAACAAAGAAAAUCUGGGCCAGGCAGGCAUCAAAAGAAAUAGUCUUGCGCUCAACCAGAAAGUCCGUAAUCAUUUUAAGGGUA, the self-cleavage is 1.41.

As for GUUAACGGUCAUAGGCCUUGGAAGCUAGGAGCACCAUUUCGCUGCCAGUGAAGAAAUGAACAAAGAAAAUCUGGGCCAGGCAGGCAUCAAAAGAAAUAGUCUUGCGCACAACCAGAAAGUCUGUAAUCAUUUUAAGGGUA, the self-cleavage was determined as 0.03.

For GUUAACGGUCAUAGGCCUUGGAAACUAGGAGCACCAUUUCGCUGCCAGUGAGGAAAUGAACAAAGAAAAUCUGGGCCAGGCAGGCAUCAAAAGAAAUAGUCUUGCGCCCAACCAGAAAGUCUGUAAUCAUCUUAAGGGUA, the self-cleavage amounted to 0.02.

For GUUAACGGUCAUAGGCCGUGGAAACUAGGAGCACCAUUUCGCUGCCAGUGAAGAAAUGAACAAAGAAAAUCUGGGCCAGGCAGGCAUCAAAAGAAAUAGCCUCGCGCUCAACCGGAAAGUCUGUAAUCAUUUUAAGGGUA, the self-cleavage was determined as 1.46.

On to GUUAACGGUCAUAGGCCUUGGAAACUAGGAGCACCAUUUCGCUGCCAGUGAAGGAACGAACAAAGGAAAUCUGGGCCAGGCAGGCAUCAAAAGAAAUAGUCUUGCGCUCAACCAGAAAGUCUGUAAUCAUUUUAAGGGUA, for which the self-cleavage came to 2.08.

As to GUUAACGGUCAUAGGCCGUGGAAACUAGGAGCACCAUUUCGCUGCCAGUGAAGAAAUGAACAAAGAAAAUCUGGGCCAGGCAGGCAUCAAAAGAAAUAGUCUCACGCUCAACCAGAAAGUCUGUAAUCAUUUUAAGGGUA, the self-cleavage worked out at 0.01.

GUUAACGGUCAUAGGCCUUGGAAGCUAGGAGCACCAUUUCGCUGCCAGUGAAGAAAUGAACAAAGGAAAUCUGGGCCAGGCAGGCAUCAAAAGAAAUAGUCUUGCGCUCAACCAGAAAGUCUGUAAUCAUUUUAAGGGUA: the self-cleavage is 1.56.

Regarding GUUAACGGUCAUAGGCCUUGGAAACUAGGAGCACCAUUUCGCUGCCAGUGGAGAAGUGAACAAAGAAAAUCUGGGCCAGGCAGGCAUCAAAAGAAAUAGUCUUGCGCUCAACCAGAAAGUCUGUAAUCAUUUUAAGGGUA, the self-cleavage was 1.06.

Regarding GUUAACGGUCAUAGGCCGUGGAAACUAGGAGCACCAUUUCGCUGCCAGUGAAGAAAUGAACAAAGAAAAACUGGGCCAGGCAGGCAUCAAAAGAAAUAGUCUUGCGCUCAACCAGAAAGUCUGUAACCAUUUUAAGGGUA, the self-cleavage amounted to 0.51.
